Screen size: about 52,000 compounds; about 1,700 (3.3%) were called active. Cut-off read from the data, not from the text of the source: active = survival mostly below about 52% (no sharp cut-off); inactive = mostly above about 56%. Some of the results follow.
These molecules were tested on Wild type (assay: S. aureus survival, RN4220 and DeltatarO strains – OD600, teichoic acid synthesis inhibitors, primary screen (AID 463173)). Details: S. aureus RN4220 wild type/DeltatarO growth, OD600, 18 h, stronger effect = lower value, screened at 18.75 µg/mL (by protocol).
In the case of `COC(=O)c1cc2oc(C)cc2n1CC(=O)Nc1ccc(C(C)C)cc1`, the survival is reported as inactive: 75%. With `CCc1cccc(C)c1NC(=O)Cn1nc(C)n2cccc2c1=O` the survival was inactive: 89%. In the case of `CCOC(=O)C(C)Sc1ccc2nnc(CCNS(=O)(=O)c3ccc(C)cc3)n2n1` (stereo not given), the survival is reported as inactive: 83%. With `N#Cc1c(C(F)(F)F)cc(-c2cccs2)nc1SCc1ccc(F)cc1` the survival was inactive: 120%. With `CC1Cc2ccccc2N1C(=O)CSc1nc2ccc(NC(=O)COc3ccccc3)cc2s1` (stereo not given) the survival was inactive: 85%. In the case of `CC1=C(C(=O)NCc2cccc(F)c2)C2(CCCCC2)OC1=O`, the survival is reported as active: 10%. With `CC1(c2ccc(Cl)cc2)NC(=O)CS1` (stereo not given) the survival was inactive: 105%. `Cc1ccccc1CSc1cn(CC(=O)N2CCCCC2)c2ccccc12` was tested, and the survival was inactive: 78%. With `CCOC(=O)c1c(C)oc2nc(C)nc(NCC3CCN(Cc4ccc(C)cc4)CC3)c12` the survival was inactive: 77%. For `O=C(Nc1cccc(C(F)(F)F)c1)c1cnn(-c2cccc(F)c2)c1C1CCNCC1`, the survival was inactive: 88%. With `Cc1nn(C)cc1CN(C)C(=O)c1cc(-c2ccccc2)nc2ccc(Br)cc12` the survival was inactive: 88%. `COc1ccc(OCC(=O)N2CCc3ccccc3C2)cc1` was tested, and the survival was inactive: 106%. For `CC(C)(C)c1ccc(C(=O)NCCc2csc(-c3ccc(Cl)cc3)n2)cc1`, the survival was inactive: 83%. With `CC(=O)OC1COC(N2CCc3ccccc32)C(OC(C)=O)C1OC(C)=O` (stereo not given) the survival was inactive: 106%. `CCOc1ccc(CCNC(=O)c2oc(=O)c3ccccc3c2-c2ccc(C)cc2)cc1OCC` was tested, and the survival was inactive: 70%. For `Cc1ccc(NC(=O)CCS(=O)(=O)c2ccc(Br)s2)c(Br)c1`, the survival was inactive: 92%. In the case of `Cc1cc(=O)c2c(ccc3ccccc32)[nH]1`, the survival is reported as inactive: 110%. In the case of `CCCc1ccc(OCC(=O)Nc2sc(C(=O)OCC)c(C)c2C(=O)OCC)cc1`, the survival is reported as inactive: 92%. In the case of `CCc1ccccc1NS(=O)(=O)c1ccc2[nH]cc(C(=O)N(CC)Cc3ccccc3)c(=O)c2c1`, the survival is reported as inactive: 82%. With `CSc1ncc(C(=O)NCc2ccccc2F)c(-c2ccccc2)n1` the survival was inactive: 118%. With `Cc1ccc(C)c(N2CCN(S(=O)(=O)c3ccc4c(c3)C(C(C)C)C(=O)N4)CC2)c1` (stereo not given) the survival was inactive: 84%. For `CCc1ccc(C2CC(=O)c3c([nH]c(C(=O)OC4CCCC4)c3C)C2)cc1` (stereo not given), the survival was inactive: 92%. For `COc1cccc(-c2nc(CS(=O)(=O)CC(=O)N3CCN(c4cc(C)ccc4C)CC3)c(C)o2)c1`, the survival was inactive: 65%. `CC1CCN(CC(=O)Nc2ccc(S(=O)(=O)N3CCCCC3)cc2)CC1` was tested, and the survival was inactive: 101%. In the case of `CCOC(=O)c1ccc(CN(Cc2ccc(F)cc2)S(=O)(=O)c2ccc(F)c(C(=O)Nc3c(C)cccc3C)c2)cc1`, the survival is reported as inactive: 78%.

Reference: PubChem BioAssay AID463173 (ICCB-Longwood Screening Facility, Harvard Medical School, 2010)
